Biological target: N-terminal truncated recombinant human PDE7B enzyme (Homo sapiens (Human), UniProt Q9NP56)
Test: biochemical

SMILES	IC50 [nM]
COC(=O)CCC1CCCCN1C(=O)c1cc2cc(Cl)c3c(c2o1)C1(CCCCC1)NC(=O)N3 (centres unmarked) [Example 458, Methyl 3-[1-({5′-chloro-7′-oxo-7′,8′-dihydro-6′H-spiro[cyclohexane-1,9′-furo[2,3-f]quinazoline]-2′-yl}carbonyl)piperidin-2-yl]propanoate]	10 to 100
CN(C)CCC1CCN(C(=O)c2cc3cc(Cl)c4c(c3o2)C2(CCCCC2)NC(=O)N4)CC1 [Example 328, 5′-Chloro-2′-{4-[2-(dimethylamino)ethyl]piperidine-1-carbonyl}-7′,8′-dihydro-6′H-spiro[cyclohexane-1,9′-furo[2,3-f]quinazoline]-7′-one]	10 to 100
CN(CCCO)Cc1cc2cc(Cl)c3c(c2o1)C1(CCCCC1)NC(=O)N3 [Example 494, 5′-Chloro-2′-{[(3-hydroxypropyl)(methyl)amino]methyl}-7′,8′-dihydro-6′H-spiro[cyclohexane-1,9′-furo[2,3-f]quinazoline]-7′-one]	100 to 1000
CC(C)N(CC1CCC(=O)N1)C(=O)c1cc2cc(Cl)c3c(c2o1)C1(CCCCC1)NC(=O)N3 (centres unmarked) [Example 379, 5′-Chloro-7′-oxo-N-[(5-oxopyrrolidin-2-yl)methyl]-N-(propan-2-yl)-7′,8′-dihydro-6′H-spiro[cyclohexane-1,9′-furo[2,3-f]quinazoline]-2′-carboxamide]	10 to 100
CC(C)OCCNC(=O)c1cc2cc(Cl)c3c(c2o1)C1(CCCCC1)NC(=O)N3 [Example 246, 5′-Chloro-7′-oxo-N-[2-(propan-2-yloxy)ethyl]-7′,8′-dihydro-6′H-spiro[cyclohexane-1,9′-furo[2,3-f]quinazoline]-2′-carboxamide]	10 to 100
CN1CCC(CNC(=O)c2cc3cc(Cl)c4c(c3o2)C2(CCCCC2)NC(=O)N4)CC1 [Example 308, 5′-Chloro-N-[(1-methylpiperidin-4-yl)methyl]-7′-oxo-7′,8′-dihydro-6′H-spiro[cyclohexane-1,9′-furo[2,3-f]quinazoline]-2′-carboxamide]	100 to 1000
O=C1Nc2c(Cl)cc3cc(C(=O)NCC4COc5ccccc5O4)oc3c2C2(CCCCC2)N1 (centres unmarked) [Example 452, 5′-Chloro-N-(2,3-dihydro-1,4-benzodioxin-2-ylmethyl)-7′-oxo-7′,8′-dihydro-6′H-spiro[cyclohexane-1,9′-furo[2,3-f]quinazoline]-2′-carboxamide]	10 to 100
CCOCC1(CNCc2cc3cc(Cl)c4c(c3o2)C2(CCCCC2)NC(=O)N4)CC1 [Example 558, 5′-Chloro-2′-[({[1-(ethoxymethyl)cyclopropyl]methyl}amino)methyl]-7′,8′-dihydro-6′H-spiro[cyclohexane-1,9′-furo[2,3-f]quinazoline]-7′-one]	100 to 1000
O=C1Nc2c(Cl)cc3nc(CN4CCCCC4CO)oc3c2C2(CCCCC2)N1 (centres unmarked) [Example 95, 5-Chloro-2-{[2-(hydroxymethyl)piperidin-1-yl]methyl}-7,8-dihydro-6H-spiro[[1,3]oxazolo[5,4-f]quinazoline-9,1′-cyclohexane]-7-one]	100 to 1000
CCOC1CCN(Cc2nc3cc(Cl)c4c(c3o2)C2(CCCCC2)NC(=O)N4)CC1 [Example 69, 5-Chloro-2-[(4-ethoxypiperidin-1-yl)methyl]-7,8-dihydro-6H-spiro[[1,3]oxazolo[5,4-f]quinazoline-9,1′-cyclohexane]-7-one]	100 to 1000
CC1(CNCc2nc3cc(Cl)c4c(c3o2)C2(CCCCC2)NC(=O)N4)CCOC1 (centres unmarked) [Example 160, 5-Chloro-2-({[(3-methyloxolan-3-yl)methyl]amino}methyl)-7,8-dihydro-6H-spiro[[1,3]oxazolo[5,4-f]quinazoline-9,1′-cyclohexane]-7-one]	10 to 100
CCC1COCCN1Cc1nc2cc(Cl)c3c(c2o1)C1(CCCCC1)NC(=O)N3 (centres unmarked) [Example 101, 5-Chloro-2-[(3-ethylmorpholin-4-yl)methyl]-7,8-dihydro-6H-spiro[[1,3]oxazolo[5,4-f]quinazoline-9,1′-cyclohexane]-7-one]	100 to 1000
O=C1Nc2c(Cl)cc3cc(CN4CCC(O)(c5cccs5)CC4)oc3c2C2(CCCCC2)N1 [Example 512, 5′-Chloro-2′-{[4-hydroxy-4-(thiophen-2-yl)piperidin-1-yl]methyl}-7′,8′-dihydro-6′H-spiro[cyclohexane-1,9′-furo[2,3-f]quinazoline]-7′-one]	100 to 1000
CN(C)C1CCN(Cc2nc3cc(Cl)c4c(c3o2)C2(CCCCC2)NC(=O)N4)CC1 [Example 113, 5-Chloro-2-{[4-(dimethylamino)piperidin-1-yl]methyl}-7,8-dihydro-6H-spiro[[1,3]oxazolo[5,4-f]quinazoline-9,1′-cyclohexane]-7-one]	100 to 1000
O=C1Nc2c(Cl)cc3nc(CN[C@H]4CCOC4)oc3c2C2(CCCCC2)N1 [Example 153]	10 to 100
O=C1Nc2c(Cl)cc3cc(C(=O)N4CCN(Cc5ccco5)CC4)oc3c2C2(CCCCC2)N1 [Example 357, 5′-Chloro-2′-[4-(furan-2-ylmethyl)piperazine-1-carbonyl]-7′,8′-dihydro-6′H-spiro[cyclohexane-1,9′-furo[2,3-f]quinazoline]-7′-one]	10 to 100

SMILES	IC50 [nM]
CCN1CCN(Cc2cc3cc(Cl)c4c(c3o2)C2(CCCCC2)NC(=O)N4)CC1 [Example 553, 5′-Chloro-2′-[(4-ethylpiperazin-1-yl)methyl]-7′,8′-dihydro-6′H-spiro[cyclohexane-1,9′-furo[2,3-f]quinazoline]-7′-one]	100 to 1000
CN(CCN1CCOCC1)Cc1nc2cc(Cl)c3c(c2o1)C1(CCCCC1)NC(=O)N3 [Example 124, 5-Chloro-2-({methyl[2-(morpholin-4-yl)ethyl]amino}methyl)-7,8-dihydro-6H-spiro[[1,3]oxazolo[5,4-f]quinazoline-9,1′-cyclohexane]-7-one]	10 to 100
CC(C)n1cnnc1CN(C)C(=O)c1cc2cc(Cl)c3c(c2o1)C1(CCCCC1)NC(=O)N3 [Example 400, 5′-Chloro-N-methyl-7′-oxo-N-{[4-(propan-2-yl)-4H-1,2,4-triazol-3-yl]methyl}-7′,8′-dihydro-6′H-spiro[cyclohexane-1,9′-furo[2,3-f]quinazoline]-2′-carboxamide]	100 to 1000
O=C1Nc2c(Cl)cc3nc(CN4C[C@H]5C[C@@H]4CO5)oc3c2C2(CCCCC2)N1 [Example 109, 5-Chloro-2-[(1R,4R)-2-oxa-5-azabicyclo[2.2.1]heptan-5-ylmethyl]-7,8-dihydro-6H-spiro[[1,3]oxazolo[5,4-f]quinazoline-9,1′-cyclohexane]-7-one]	10 to 100
Cc1noc(C)c1CCN(C)C(=O)c1cc2cc(Cl)c3c(c2o1)C1(CCCCC1)NC(=O)N3 [Example 446, 5′-Chloro-N-[2-(dimethyl-1,2-oxazol-4-yl)ethyl]-N-methyl-7′-oxo-7′,8′-dihydro-6′H-spiro[cyclohexane-1,9′-furo[2,3-f]quinazoline]-2′-carboxamide]	10 to 100
O=C1Nc2c(Cl)cc3cc(C(=O)NCCN4CCCC4=O)oc3c2C2(CCCCC2)N1 [Example 320, 5′-Chloro-7′-oxo-N-[2-(2-oxopyrrolidin-1-yl)ethyl]-7′,8′-dihydro-6′H-spiro[cyclohexane-1,9′-furo[2,3-f]quinazoline]-2′-carboxamide]	10 to 100
O=C1Nc2c(Cl)cc3nc(CN[C@@H]4CCOC4)oc3c2C2(CCCCC2)N1 [Example 155, 5-Chloro-2-({[(3R)-oxolan-3-yl]amino}methyl)-7,8-dihydro-6H-spiro[[1,3]oxazolo[5,4-f]quinazoline-9,1′-cyclohexane]-7-one]	10 to 100
O=C1Nc2c(Cl)cc3cc(C(=O)NCC(=O)N4CCCCC4)oc3c2C2(CCCCC2)N1 [Example 365, 5′-Chloro-7′-oxo-N-[2-oxo-2-(piperidin-1-yl)ethyl]-7′,8′-dihydro-6′H-spiro[cyclohexane-1,9′-furo[2,3-f]quinazoline]-2′-carboxamide]	100 to 1000
CC(C)N1CCN(Cc2cc3cc(Cl)c4c(c3o2)C2(CCCCC2)NC(=O)N4)CC1 [Example 29, 5′-Chloro-2′-((4-isopropylpiperazin-1-yl)methyl)-6′H-spiro[cyclohexane-1,9′-furo[2,3-f]quinazolin]-7′(8′H)-one]	100 to 1000
COC1CCN(Cc2nc3cc(Cl)c4c(c3o2)C2(CCCCC2)NC(=O)N4)CC1 [Example 112, 5-Chloro-2-[(4-methoxypiperidin-1-yl)methyl]-7,8-dihydro-6H-spiro[[1,3]oxazolo[5,4-f]quinazoline-9,1′-cyclohexane]-7-one]	100 to 1000
COc1cccc(CN(C)C(=O)c2cc3cc(Cl)c4c(c3o2)C2(CCCCC2)NC(=O)N4)c1OC [Example 279, 5′-Chloro-N-[(2,3-dimethoxyphenyl)methyl]-N-methyl-7′-oxo-7′,8′-dihydro-6′H-spiro[cyclohexane-1,9′-furo[2,3-f]quinazoline]-2′-carboxamide]	10 to 100
CN(CCc1ccccn1)C(=O)c1cc2cc(Cl)c3c(c2o1)C1(CCCCC1)NC(=O)N3 [Example 266, 5′-Chloro-N-methyl-7′-oxo-N-[2-(pyridin-2-yl)ethyl]-7′,8′-dihydro-6′H-spiro[cyclohexane-1,9′-furo[2,3-f]quinazoline]-2′-carboxamide]	10 to 100
O=C1Nc2c(Cl)cc3cc(CN4CCCC4CO)oc3c2C2(CCCCC2)N1 (centres unmarked) [Example 481, 5′-Chloro-2′-{[2-(hydroxymethyl)pyrrolidin-1-yl]methyl}-7′,8′-dihydro-6′H-spiro[cyclohexane-1,9′-furo[2,3-f]quinazoline]-7′-one]	100 to 1000
CC(C)C(=O)N1CCN(C(=O)c2cc3cc(Cl)c4c(c3o2)C2(CCCCC2)NC(=O)N4)CC1 [Example 460, 5′-Chloro-2′-[4-(2-methylpropanoyl)piperazine-1-carbonyl]-7′,8′-dihydro-6′H-spiro[cyclohexane-1,9′-furo[2,3-f]quinazoline]-7′-one]	10 to 100
CC(C)(C)N1CCN(C(=O)c2cc3cc(Cl)c4c(c3o2)C2(CCCCC2)NC(=O)N4)CC1 [Example 449, 2′-(4-tert-Butylpiperazine-1-carbonyl)-5′-chloro-7′,8′-dihydro-6′H-spiro[cyclohexane-1,9′-furo[2,3-f]quinazoline]-7′-one]	100 to 1000
CN1CCCN(Cc2cc3cc(Cl)c4c(c3o2)C2(CCCCC2)NC(=O)N4)CC1 [Example 533, 5′-Chloro-2′-[(4-methyl-1,4-diazepan-1-yl)methyl]-7′,8′-dihydro-6′H-spiro[cyclohexane-1,9′-furo[2,3-f]quinazoline]-7′-one]	100 to 1000

— patent US11685745B2, “Substituted benzoxazole and benzofuran compounds as PDE7 inhibitors” (Dart NeuroScience, LLC, priority 2017, dated 2023)
